Laboratory results from PMC4336329 (PLoS ONE, 2015).
Out of some 310,000 compounds screened, about 2,200 (0.71%) showed an effect of 50% or more. The effect is printed as a negative number. The list shows a part of the results.

Target: human ether-à-go-go-related gene (hERG) potassium channel (human, UniProt Q12809)
Assay: primary screen, population patch clamp on CHO cells stably expressing hERG

Chain of human ether-à-go-go-related gene (hERG) potassium channel (Q12809 whole entry, looked up): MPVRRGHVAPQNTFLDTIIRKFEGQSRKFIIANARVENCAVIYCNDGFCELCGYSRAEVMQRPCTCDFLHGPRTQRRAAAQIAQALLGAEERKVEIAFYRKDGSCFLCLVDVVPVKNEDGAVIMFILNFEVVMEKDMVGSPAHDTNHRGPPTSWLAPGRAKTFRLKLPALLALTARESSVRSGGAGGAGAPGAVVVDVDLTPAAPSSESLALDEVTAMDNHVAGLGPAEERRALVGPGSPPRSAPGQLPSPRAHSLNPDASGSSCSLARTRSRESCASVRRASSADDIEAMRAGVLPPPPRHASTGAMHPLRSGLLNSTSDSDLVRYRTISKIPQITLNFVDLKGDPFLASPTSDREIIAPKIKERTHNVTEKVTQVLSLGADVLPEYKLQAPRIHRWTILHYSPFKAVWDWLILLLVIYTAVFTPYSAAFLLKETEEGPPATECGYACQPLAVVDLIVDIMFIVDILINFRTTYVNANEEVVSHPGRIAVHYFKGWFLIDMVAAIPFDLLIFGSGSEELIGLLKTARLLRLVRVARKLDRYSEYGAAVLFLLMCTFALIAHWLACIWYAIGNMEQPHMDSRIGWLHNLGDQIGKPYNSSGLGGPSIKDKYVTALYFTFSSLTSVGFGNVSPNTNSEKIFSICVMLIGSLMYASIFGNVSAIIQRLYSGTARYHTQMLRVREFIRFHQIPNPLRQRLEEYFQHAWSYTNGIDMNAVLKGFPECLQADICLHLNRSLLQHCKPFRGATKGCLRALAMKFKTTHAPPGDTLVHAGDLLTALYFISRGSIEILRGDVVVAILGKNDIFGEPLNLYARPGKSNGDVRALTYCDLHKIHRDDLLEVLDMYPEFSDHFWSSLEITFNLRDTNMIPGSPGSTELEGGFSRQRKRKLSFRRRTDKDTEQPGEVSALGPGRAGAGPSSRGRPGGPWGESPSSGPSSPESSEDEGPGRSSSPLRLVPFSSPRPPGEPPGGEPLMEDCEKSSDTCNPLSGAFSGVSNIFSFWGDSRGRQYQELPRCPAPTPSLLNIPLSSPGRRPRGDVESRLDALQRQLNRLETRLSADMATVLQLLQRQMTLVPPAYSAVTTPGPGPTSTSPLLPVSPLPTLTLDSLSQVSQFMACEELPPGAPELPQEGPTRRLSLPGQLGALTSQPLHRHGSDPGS

| SMILES | hERG current change (%, negative = inhibition) at 1uM [%] |
| --- | --- |
| O=[N+]([O-])c1cccc(/C=N/Nc2cc(Cl)nc(-c3ccccc3)n2)c1 | 11.7 |
| COc1cc(/C=N/NC(=O)Cc2nnc(NC(=O)c3ccccc3)s2)ccc1O | 10.3 |
| CCOc1ccc2[nH]c(=O)c(CN(CC3CCCN3CC)C(=O)NCc3ccccc3)cc2c1 (centres unmarked) | -22.2 |
| O=C1CCCc2ccccc2N1 | 15.9 |
| COc1cccc(N2CC(C(=O)Nc3ccc(C(=O)OC(C)C)cc3)CC2=O)c1 (centres unmarked) | 7.14 |
| CCC(C)NC(=O)c1cc(Cl)c(NC(=O)C2=C(C)OCCS2)cc1OC (centres unmarked) | 7.01 |
| Cn1ccnc1SCC(=O)Nc1ccc(Cl)cn1 | 2.2 |
| CC(=O)c1ccc(NC(=O)Nc2sc(NS(=O)(=O)c3ccccc3)nc2C)cc1 | 14.9 |
| Cc1ccc(NC(=O)CSc2nnnn2C2CCCC2)cc1S(=O)(=O)N1CCOCC1 | 5.44 |
| Nc1c(N=Nc2ccccc2F)c(=O)[nH]n1-c1ccccc1 | 24.8 |
| CCOC(=O)Cc1csc(NC(=O)CSc2nc(-c3ccccc3)c(C#N)c(=O)[nH]2)n1 | 27.7 |
| Cc1cc(Nc2ccccc2)nc(N2CCN(C(=O)c3ccc4c(c3)OCO4)CC2)n1 | 1.39 |
| COc1ccccc1CCNC(=O)COc1cccc2c1OC(C)(C)C2 | 2.74 |
| O=C(O)C1C2CCC(C2)C1C(=O)Nc1cccc([N+](=O)[O-])c1 (centres unmarked) | 15.1 |
| Cc1cc(OCCN2CCCCC2)nc2ccccc12.Cl | -22.7 |
| Cc1cc(NC(=O)C(C)SCC(=O)O)no1 (centres unmarked) | 3.41 |
| O=C(C1CCN(S(=O)(=O)c2ccc(Br)s2)CC1)N1CCN(C2CCCCC2)CC1 | 5.96 |
| COc1ccc(NC(=O)NNC(=O)COc2ccc3ccccc3c2)cc1OC | 13.2 |
| COc1ccc(/C=C(/NC(=O)c2ccc(C)cc2)C(=O)NCC2CCCO2)cc1 (centres unmarked) | 5.79 |

| SMILES | hERG current change (%, negative = inhibition) at 1uM [%] |
| --- | --- |
| Cc1snc2sc(C(=O)c3ccc(F)cc3)c(N)c12 | 8.84 |
| CCN=C1S/C(=C\c2ccc(-c3cccc(C(=O)O)c3)o2)C(=O)N1CC | 15.8 |
| O=C1CCCN1CC1CCCN(Cc2nc(COc3ccccc3)no2)C1 (centres unmarked) | 14 |
| CN(C)CCCOC(=O)c1ccccc1 | 6.77 |
| O=C(N/N=C/c1c(F)c(F)c(F)c(F)c1F)c1cc(-c2ccccc2)nc2ccccc12 | 12 |
| Cc1cccc(C(CC(=O)N2CCCC2)c2ccccc2)c1O (centres unmarked) | 9.96 |
| COc1cccc(NC(=O)C(C)(C)C)c1 | 2.1 |
| N#Cc1cc2[nH]c3ccccc3c2[n+](-c2ccc([N+](=O)[O-])cc2)c1N.[Cl-] | -28.7 |
| CC(=O)c1sc(-c2ccc(F)cc2)cc1NS(=O)(=O)c1ccccc1 | 23.8 |
| N=C1SC(CC(=O)Nc2ccccc2[N+](=O)[O-])C(=O)N1c1ccccc1 (centres unmarked) | 31.7 |
| Cc1c(C(=O)N(C)C(C)c2ccccn2)oc2c(F)cccc12 (centres unmarked) | 10.2 |
| COc1ccc(CN(C(=O)c2cccs2)c2ccccc2)cc1 | 22.1 |
| [O-][n+]1c2c(nn1-c1ccccc1)/C(=N/O)CCC2 | 0.495 |
| CCCN1CN(Cc2ccccc2)CC2=C1CC(C)(C)CC2=O.Cl | -1.42 |
| CC1=CC(C#N)(C#N)C(C#N)(C#N)C(c2ccccc2)N1 (centres unmarked) | 16.2 |
| COc1ccc(C/C(C)=N/NC(=S)Nc2ccccc2F)cc1 | 13.7 |
| COc1cccc(CN2CCN(C(=O)COc3ccc4ccccc4c3)CC2)c1 | 10.5 |
| COC(=O)C1CN(C(=O)C(C)Oc2ccccc2Cl)c2ccccc2O1 (centres unmarked) | 4.94 |
| CN(CC(=O)Nc1ccc(Cl)c(C(F)(F)F)c1)C(=O)c1cccc2cccnc12 | 1.14 |

| SMILES | hERG current change (%, negative = inhibition) at 1uM [%] |
| --- | --- |
| Cc1nc(COc2cc3oc(=O)cc(C)c3cc2Cl)cs1 | 14.9 |
| COC(=O)c1c(C(=O)OC)c(-c2ccc(Cl)c(Cl)c2)n2c1CCC2 | 15.1 |
| O=C(CSc1nc2ccccc2c(=O)n1-c1ccccc1)N1CCc2ccccc21 | 4.49 |
| CN(C)C=C1C(=O)N(C2CCCCC2)C(=O)N(C2CCCCC2)C1=O | 5.98 |
| CN(C(=O)c1ccco1)c1nnc(-c2ccc(F)cc2)s1 | 16.1 |
| Cc1[nH]n(-c2ccccc2)c(=O)c1C(c1cccc([N+](=O)[O-])c1O)c1c(C)[nH]n(-c2ccccc2)c1=O | -2.66 |
| Cc1cc(O)c(NC(=O)c2ccc(Br)o2)cc1C | 1.84 |
| COc1ccc(C(=O)NNC(=O)CSc2nnc(-c3cccnc3)n2C)cc1 | 13.5 |
| O=C(c1ccc(Cl)cc1)N1C2C=CC(C2)C1(C(F)(F)F)C(F)(F)F (centres unmarked) | 18.1 |
| O=C(O)CSc1cccnc1Sc1ccc(Cl)cc1 | 3.81 |
| Cn1c(S(=O)(=O)Cc2ccc(Cl)cc2)nc2ccccc21 | 3.17 |
| Cc1cc(NC(=O)c2ccc(NC(=O)C(C)C)cc2)no1 | 2.49 |
| COC(=O)C1=C(c2cccc(C#N)c2)C[C@@H]2CC[C@H]1N2C(=O)NC1Cc2ccccc2C1 | 15 |
| CCOc1ccccc1NC(=O)CN(C)S(=O)(=O)c1ccc(OC)c(C)c1 | -1.26 |
| N#Cc1ccccc1S(=O)(=O)N1CCN(c2ccc(S(=O)(=O)N3CCOCC3)cn2)CC1 | -1.92 |
| COc1ccc(C(=O)NCCC2=CCCCC2)cc1OC | 8.68 |
| COc1ccccc1CNS(=O)(=O)c1cc2c3c(c1)CCC(=O)N3CCC2 | 7.42 |
| Cc1cccc2sc(N(CCCN(C)C)C(=O)CCc3ccccc3)nc12.Cl | -5.32 |
